{"source": "the supplement of paper PMC11417369", "note": "This is one part of the list.", "data": [{"system": "PfHDP1 homeodomain (GST-tagged)", "experiment": "gcPBM binding intensity (ln(normalized median fluorescence intensity)); higher = stronger DNA binding", "in_short": "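After 1 h on an Agilent 4 × 180k array of primer-extended double-stranded 36-bp intergenic genomic probes and negative controls, bound GST-tagged P. falciparum DNA-binding domains were detected with Alexa488 anti-GST antibody and scanned at 488 nm. The domains had been expressed in E. coli, and binding took place in 1× PBS with 1% milk, 0.2 mg/ml BSA, 0.5% salmon testes DNA and 0.03% Triton X-100. Binding intensity is the highest Masliner-normalised natural-log median intensity across replicate spots of either probe orientation.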", "values": [{"sequence": "TTTAAAAAAATTCATGCACACGAAATAAAAAGCACC [CACACA_site8214]", "gcPBM binding intensity (ln)": 9.37}, {"sequence": "TATATATAATTCATACATTTTAAATATATTTATTTA [CACACA_negctrl_site840]", "gcPBM binding intensity (ln)": 6.41}, {"sequence": "TTTTAAAAACGGCATGCATGTAATACATGGAAGGAA [TGCATGCA_site480]", "gcPBM binding intensity (ln)": 7.41}, {"sequence": "TATAATAATATAATGGTGCATGTATATAACCATATA", "gcPBM binding intensity (ln)": 8.84}, {"sequence": "TTTGTTGACAGACACACACACATACATATATATATA [CACACA_site2288]", "gcPBM binding intensity (ln)": 8.79}, {"sequence": "GCTCTTTTGTTATGGTGTACCCTCCATGTAACATAA [XGTACX_site91]", "gcPBM binding intensity (ln)": 6.58}, {"sequence": "TTAATAATTCTTAAAAGTACATAACTTTTTTTTTTT [XGTACX_site751]", "gcPBM binding intensity (ln)": 5.95}, {"sequence": "AAATAAATATAAATAAATAAATAAATAAATATATAT [CACACA_negctrl_site827]", "gcPBM binding intensity (ln)": 6.28}, {"sequence": "TTGTTCTATATATATGCATGCACGTATGTTAAATTA [TGCATGCA_site659]", "gcPBM binding intensity (ln)": 8.06}, {"sequence": "TATTAATTTTTATACGCATGTGTATAGTAATATATA [TGCATGCA_site1010]", "gcPBM binding intensity (ln)": 6.43}, {"sequence": "TCTCATATATTGAATTGTACATATGTTAAAATATAG [XGTACX_site6764]", "gcPBM binding intensity (ln)": 6.58}, {"sequence": "ATACAAAAGGGGAATACACACACATATATATATATA [CACACA_site8694]", "gcPBM binding intensity (ln)": 9.25}, {"sequence": "AATAAACATAGATGTACACACATATACAGATATATA [CACACA_site5570]", "gcPBM binding intensity (ln)": 6.3}, {"sequence": "TAAAGAATAATACATTCACACAATATTATAAAAATA [CACACA_site5986]", "gcPBM binding intensity (ln)": 6.29}, {"sequence": "TTGTATGAATTTATTTTTATTGATAATTAATATGTA [TGCATGCA_negctrl_site143]", "gcPBM binding intensity (ln)": 6.11}, {"sequence": "GAAATGTCATATAATAGTACACACATGAAAATATAA [XGTACX_site6838]", "gcPBM binding intensity (ln)": 6.69}, {"sequence": "TATGATTAATTACCACAATTGACAAAAAAAAAAAAA [CACACA_negctrl_site336]", "gcPBM binding intensity (ln)": 6.19}, {"sequence": "AAAAATAAAGGATATACACACTAATTCTATAAATAT [CACACA_site7344]", "gcPBM binding intensity (ln)": 6.4}, {"sequence": "TATAAGTATTAATACACACACAAAATAATAAAAAAA [CACACA_site3481]", "gcPBM binding intensity (ln)": 7.14}, {"sequence": "GTCTCGATAATGAAAAGTACAAAATAAAAATAATAA [XGTACX_site6471]", "gcPBM binding intensity (ln)": 6.71}, {"sequence": "AAGAGGTTAATGAAATGTACACATATATATATATAT [XGTACX_site1861]", "gcPBM binding intensity (ln)": 9.26}, {"sequence": "TATAGTTTTGAAAACAAACACACAAAAAAAAAAAAA [CACACA_site1691]", "gcPBM binding intensity (ln)": 6.31}, {"sequence": "TATGTAACCTGTTTTACACACCCCCACCCCCCTCTT [CACACA_site319]", "gcPBM binding intensity (ln)": 7.95}, {"sequence": "TTTTATAAATATTATACATGCATAATGATAAAAAAA [TGCATGCA_site927]", "gcPBM binding intensity (ln)": 6.91}, {"sequence": "TTTTTTTTCTATGTGGTGCACATTATTTTTTTTTTT", "gcPBM binding intensity (ln)": 9.27}, {"sequence": "ATAATTTCACAAATAGTGCAAAAATTAGTAAGAATA [GTGCAC_site9648]", "gcPBM binding intensity (ln)": 9.31}, {"sequence": "AAAAAAAACAGACACACACACATACAAAATATATAT [CACACA_site1449]", "gcPBM binding intensity (ln)": 6.88}, {"sequence": "TTTAAATACAGACATACACACATACACAGACATATA [CACACA_site4460]", "gcPBM binding intensity (ln)": 6.99}, {"sequence": "ATATTTTTATGTACTTCAAAAAAAAAGAAAAACAAA [CACACA_negctrl_site970]", "gcPBM binding intensity (ln)": 6.27}, {"sequence": "CTCTATTGTTAAAAGGTGCTTTTATGATTTTATATA [GTGCAC_site9409]", "gcPBM binding intensity (ln)": 6.58}, {"sequence": "TTAATATATTTTAAAAGTACATAATATTATTTTTTA [XGTACX_site3642]", "gcPBM binding intensity (ln)": 6.17}, {"sequence": "AAGAAAAGAACAAGAGCATGCACTTAATAAGAATAA [TGCATGCA_site818]", "gcPBM binding intensity (ln)": 8.75}, {"sequence": "ATATATATATATATATGTACTTATTTATTTATTTAT [XGTACX_site4645]", "gcPBM binding intensity (ln)": 9.36}, {"sequence": "ATATTTTACATATTTGCACACATATATTTATATACA [CACACA_site855]", "gcPBM binding intensity (ln)": 10.7}, {"sequence": "TAATATGTGGACTTTACACACTTGTTTTAAAATTCT [CACACA_site4605]", "gcPBM binding intensity (ln)": 6.13}, {"sequence": "ATATTAAAGATATATACACACATATTTATAAATATA [CACACA_site7127]", "gcPBM binding intensity (ln)": 6.57}, {"sequence": "AAAATTTATGGAAGGTGTACTGTTAATTATGTATAT [XGTACX_site6446]", "gcPBM binding intensity (ln)": 6.58}, {"sequence": "GAAGACAATTATATGTGTACATATATATACATATAT [XGTACX_site4630]", "gcPBM binding intensity (ln)": 6.45}, {"sequence": "AGTAGATATTATTATAGTACTTTTTATTTTATATTT [XGTACX_site1551]", "gcPBM binding intensity (ln)": 6.2}, {"sequence": "GGAATTCATATTAATTGTACATTTAAAGATAGATGA [XGTACX_site3279]", "gcPBM binding intensity (ln)": 6.44}, {"sequence": "ATATGATTAATTAAGTGTACGTATTTATAATTATAA [XGTACX_site5783]", "gcPBM binding intensity (ln)": 6.74}, {"sequence": "ATTACAATTTTAATAGTGCATTTTTATATATTTCTA [GTGCAC_site9918]", "gcPBM binding intensity (ln)": 8.93}, {"sequence": "TTTTTACTATAAGGGGAAAAAAAAAAAAATAATATA [XGTACX_negctrl_site279]", "gcPBM binding intensity (ln)": 5.97}, {"sequence": "CAAGAAAAGAAACACACACACATATATATATATATA [CACACA_site3881]", "gcPBM binding intensity (ln)": 9.23}, {"sequence": "TAAACATATACACGTACATGCAACGGATTTTTTTTT [TGCATGCA_site70]", "gcPBM binding intensity (ln)": 6.63}, {"sequence": "ATATAACTTTTAAAAGCATGCAAATATTTACTCAAT [TGCATGCA_site396]", "gcPBM binding intensity (ln)": 7.09}, {"sequence": "TATATATATATATGTGCACACATAATAAAAAAAAAA [CACACA_site3830]", "gcPBM binding intensity (ln)": 10.1}, {"sequence": "ATATAAAAATAATAGAGTACAAAAAAAAAATGTATA [XGTACX_site7054]", "gcPBM binding intensity (ln)": 6.7}, {"sequence": "TGTATACATTATTAAGTGCAAGTAGGGAAAAAAAAA", "gcPBM binding intensity (ln)": 8.27}, {"sequence": "GATGATACGATTATCACACATTTATACTTTCTACAT [CACACA_site5669]", "gcPBM binding intensity (ln)": 6.34}, {"sequence": "TTTATTTATCTTTACGCACACACTTGCATGTACAAA [CACACA_site1118]", "gcPBM binding intensity (ln)": 8.22}, {"sequence": "TACCTACCTTTACGGAGTACACAATAATAGTTATAA [XGTACX_site6593]", "gcPBM binding intensity (ln)": 6.7}, {"sequence": "GAAAAAAATGAAATTAGTACTTATCTTAAATTTTTA [XGTACX_site1018]", "gcPBM binding intensity (ln)": 5.78}, {"sequence": "AAAAATATATAATAAAGTACACATAAATGAATAAAT [XGTACX_site329]", "gcPBM binding intensity (ln)": 6.37}, {"sequence": "TTTTTTTTTTTTTGATGTACAATTAATATTATAAAA [XGTACX_site6969]", "gcPBM binding intensity (ln)": 6.59}, {"sequence": "ATTTCTTTTTTATTGAGTACATATGACCATGTTCAA [XGTACX_site5365]", "gcPBM binding intensity (ln)": 6.86}, {"sequence": "AGTAATAAATAATTTACACACATATTATATCATCAC [CACACA_site1890]", "gcPBM binding intensity (ln)": 6.6}]}]}
